Experimental data published in PubChem BioAssay AID493208 (National Center for Advancing Translational Sciences (NCATS), 2011).
The campaign covered roughly 44,000 compounds. About 340 (0.77%) were called active. About 5% were inconclusive and are not listed. The call rests on the fitted dose curve; in most records, active means well fitted inhibition curve with a large enough effect; inconclusive means small, poorly fitted or top-dose-only effect; inactive means flat fitted curve, though single readings scatter. The list shows a part of the results.

Test: Acumen qHTS Assay for Inhibitors of the mTORC1 Signaling Pathway in MEF (Tsc2-/-, p53-/-) Cells: Sytravon; further: nearly all actives have a fitted effect of over 50% in size;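 on activity change, negative = inhibition: plate controls were DMSO for no effect and rapamycin for full effect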
Details: phospho-rpS6 immunofluorescence/PI, 24 h; series mostly up to 38.3 µM; activity change, negative = inhibition: at the top concentration
Procedure, shortened: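 Read-out: phospho-S6 Alexa-488 intensity over PI intensity per well, scored as % active cells using thresholds from rapamycin (7.5 nM) and DMSO controls. Tsc2-/-, p53-/- MEFs exposed to compound for 24 h; PI cell count recorded as viability.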
Potency means the concentration at half of the fitted maximal effect.

| SMILES | activity change, negative = inhibition | Potency |
| --- | --- | --- |
| CCCOc1ccc(NC(=O)CC2C(=O)N(c3cccc(C)c3)C(=O)N2CCc2ccncc2)cc1 (stereo not given) | inactive: -2.27% | – |
| COc1ccc(Nc2nc3c(S(=O)(=O)c4ccccc4)nnn3c3ccc(Cl)cc23)cc1OC | inactive: -8.61% | – |
| CCOC(=O)c1cccc(NC(=O)c2cc3c(=O)n(Cc4cccnc4)ccc3nc2C)c1 | inactive: 0% | – |
| Cc1cccc(-c2nc(N3CCN(c4ccc(F)cc4)CC3)c3ccccc3n2)c1 | inactive: -0.83% | – |
| CCOC(=O)c1cccc(Nc2nc(C(=O)OCC)nc3ccccc23)c1 | inactive: 0.266% | – |
| CCCCCn1c(=O)[nH]c2cc(C(=O)N3CCN(c4ccccc4F)CC3)ccc2c1=O | inactive: 3.68% | – |
| CCOC(=O)c1[nH]c2ccccc2c1NC(=O)c1ccc(OCC)cc1 | inactive: -33.1% | – |
| Cc1ccc(-n2ncc3c(NCCCn4ccnc4)ncnc32)cc1 | inactive: 9.35% | – |
| Cc1ccc(NC(=O)c2cc(-c3cccs3)on2)cc1C | inactive: -20.3% | – |
| CCN1CCN(CCCNC(=O)c2cnn(-c3ccc(C)cc3)c2C2CCN(C(=O)OC(C)(C)C)CC2)CC1 | inactive: 0.646% | – |
| COc1ccc(S(=O)(=O)NCCS(=O)(=O)N2CCN(c3ccccc3F)CC2)cc1 | inactive: -1.57% | – |
| COc1cccc(-n2c(SCC(=O)Nc3ccc(F)cc3F)nc3c([nH]c4ccccc43)c2=O)c1 | inactive: -23.8% | – |
| c1csc(-c2nc3ccccn3c2Nc2ccc3c(c2)OCCO3)c1 | inactive: -1.14% | – |
| COc1cc(-c2nc3cccc(C)n3c2Nc2ccc3c(c2)OCCO3)ccc1O | inactive: 0.545% | – |
| CCCCOC(=O)c1ccc(NC(=O)CSc2nc3c(c(=O)[nH]2)CCC3)cc1 | inactive: -0.202% | – |
| CC(=O)c1ccc(N2CCN(c3ncnc4onc(-c5ccc(Cl)cc5)c34)CC2)cc1 | inactive: -0.639% | – |
| CCOc1cc(-c2ccc(OC(=O)c3ccc(Cl)cc3)c(OC)c2)cc(=O)c2c(C)oc(C)c12 | inactive: -1.23% | – |
| Cc1nnc(N2C(=O)c3oc4ccccc4c(=O)c3C2c2ccc(F)cc2)s1 (stereo not given) | inactive: -3.64% | – |
| Cc1c(C(=O)NCc2ccc(F)cc2)sc2nc(-c3ccccc3)cn12 | inactive: 1.54% | – |
| COc1ccc(CCNC(=O)c2ccc(Cn3c(=O)c4ccccc4n(Cc4ccccc4Cl)c3=O)cc2)cc1OC | inactive: 3.42% | – |

| SMILES | activity change, negative = inhibition | Potency |
| --- | --- | --- |
| COC(=O)c1c(-c2ccc(Cl)cc2)noc1N1CCN(c2cccc(OC)c2)CC1 | inactive: 4.21% | – |
| CCOc1ccccc1C(=O)NCC(c1ccc(N(C)C)cc1)N1CCc2ccccc21 (stereo not given) | inactive: 1.6% | – |
| Oc1c(C(c2ccc(Cl)cc2)N2CCCC2)sc2nc(-c3ccco3)nn12 (stereo not given) | inactive: 1.44% | – |
| O=C(Cc1ccc(NC(=O)N2CCCCc3ccccc32)cc1)Nc1ccccc1Br | inactive: -0.834% | – |
| Cc1cccc(NC(=O)CN(C)S(=O)(=O)c2cnc[nH]2)c1C | inactive: 1.01% | – |
| Cc1ccccc1CN1c2ccccc2-c2nc(SCC(=O)Nc3cc(F)ccc3F)ncc2S1(=O)=O | inactive: 5.68% | – |
| Cc1cc(C)c(NC(=O)CN2C(=O)CCn3nc(-c4cccn4C)cc32)c(C)c1 | inactive: -8.98% | – |
| Cc1ccc(-n2ncc(C(=O)NCCCN3CCN(C)CC3)c2C2CCN(C(=O)OC(C)(C)C)CC2)cc1 | inactive: 3.96% | – |
| CCCCC(=O)N1CCN(c2nc3c(C)c(C)ccc3s2)CC1 | inactive: -5.37% | – |
| CCCCNc1cc(N2CCN(C3CCCCC3)CC2)c2noc3c2c1C(=O)c1ccccc1-3 | inactive: -2.73% | – |
| Cc1cc(C)c(NC(=O)CSc2cn(CC(=O)N3CCOCC3)c3ccccc23)c(C)c1 | inactive: -7.48% | – |
| Cc1cc(C)c2c(n1)SCC(=O)N2CC(=O)Nc1cccc(C)c1C | inactive: -0.0071% | – |
| Cc1oc2ncn(CC(C)C)c(=O)c2c1C(=O)NCCCN1CCCCC1C (stereo not given) | inactive: 3.49% | – |
| COc1cccc(Cn2c(=O)n(CC3CCC(C(=O)N4CCOCC4)CC3)c(=O)c3sccc32)c1 (stereo not given) | inactive: -10.8% | – |
| CCOc1ccc(NC(=O)c2oc3ccccc3c2NC(=O)Cc2cccs2)cc1 | inactive: 2.16% | – |
| CCN1CCN(C(=O)c2ccc3c(c2)N(Cc2ccc(Cl)cc2)C(=O)c2ccccc2S3=O)CC1 (stereo not given) | inactive: -7.63% | – |
| CCc1ccc(Cn2c(CNS(=O)(=O)c3ccc4c(c3)CCCC4)nc3cccnc32)cc1 | inactive: -2.01% | – |
| CCc1ccc2c(c1)c(=O)c(C(=O)c1ccccc1)cn2CC(=O)Nc1ccc(C)c(Cl)c1 | inactive: 3.09% | – |
| CCc1ccc2c(c1)c(=O)c(C(=O)c1ccc(C)cc1)cn2CC(=O)Nc1ccccc1C | inactive: 4.3% | – |
| COc1ccc(-c2nnc(SCC(=O)NCCc3ccccc3)nc2-c2ccc(OC)cc2)cc1 | inactive: 11% | – |

| SMILES | activity change, negative = inhibition | Potency |
| --- | --- | --- |
| Cc1cccc(C)c1OCC(=O)Nc1c(C(=O)c2ccccc2)oc2ccccc12 | inactive: -8.98% | – |
| CCc1ccccc1NC(=O)c1ncoc1-c1ccco1 | inactive: 11.5% | – |
| COc1ccc(-c2c(C)nn3c(-c4ccccc4)cc(-c4ccccc4)nc23)cc1 | inactive: -5.21% | – |
| Cc1ccc(C)c(N2CCN(C(=O)c3cccn4c(=O)c5ccccc5nc34)CC2)c1 | inactive: 0.312% | – |
| CCCCOC(=O)c1ccc(NC(=O)c2cc(=O)c3ccccc3o2)cc1 | inactive: 5.56% | – |
| Cc1cc(SCC(=O)Nc2ccc(C(F)(F)F)cc2)nc(=O)[nH]1 | inactive: -5.97% | – |
| CCc1ccc(C(=O)c2cn(CC(=O)Nc3ccc(OC)cc3)c3cc4c(cc3c2=O)OCCO4)cc1 | inactive: -5.69% | – |
| O=C(Nc1ccc(OC(F)(F)F)cc1)C(NS(=O)(=O)c1cccc2nsnc12)c1ccccc1 (stereo not given) | inactive: 0.321% | – |
| O=C(O)CCCn1cc(NC(=O)COc2ccccc2F)cn1 | inactive: -1.75% | – |
| Cc1ccc(OCCSc2nc3ccccc3n2CC(=O)NC(C)C)cc1 | inactive: 1.15% | – |
| O=C1CSC2(C(=O)N(Cc3c(F)cccc3Cl)c3ccccc32)N1c1ccc(F)c(F)c1 (stereo not given) | inactive: 1.96% | – |
| O=C(CSc1ncc2c(n1)-c1cc(Cl)ccc1N(Cc1ccccc1)S2(=O)=O)NCc1ccccc1 | inactive: -28.7% | – |
| Cc1ccc(-c2nnn3c2nc(N2CCC(C)CC2)c2ccccc23)cc1 | inactive: 1.98% | – |
| CCOc1ccc(S(=O)(=O)NCCc2csc3nc(-c4cccc(C)c4)nn23)cc1 | inactive: 0.929% | – |
| Cc1ccc(C(=O)Nc2nnc(S(=O)(=O)N3CCCc4ccccc43)s2)cc1 | inactive: 8.34% | – |
| Fc1ccc(Nc2c(-c3c[nH]c4ccccc34)nc3ccccn23)cc1 | inactive: -5.08% | – |
| COc1ccc(CCNC(=O)c2ccc(CSCc3ccc(C)cc3)o2)cc1OC | inactive: 7.97% | – |
| COc1ccc(C(=O)Nc2ccc3nc(N4CCCCC4)cc(C)c3c2)cc1OC | – | active: 13.1 µM |
| Cc1cccc(CSc2ccc3nnc(CCNS(=O)(=O)c4ccccc4)n3n2)c1 | inactive: 1.1% | – |
| COCCCNC(=O)C1CCN(C(=O)c2cc3sccc3n2Cc2ccc(Cl)cc2)CC1 | inactive: 1.69% | – |
